Source: the supplement of paper PMC9990464
Structures can show the parent of a compound that is named as a salt. The list shows a part of the results. Most values come without repeats; read them as rough.
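Also: KCNR is a neuroblastoma cell line carrying an ALK mutation, in this DMSO arm without trametinib, viability was normalised to solvent-treated cells.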

These compounds were tested on KCNR (assay: area under viability curve (10 nM-1 µM), viability relative to solvent or trametinib-only control (AUC (arbitrary, % viability x concentration range)); higher = less growth inhibition (more viable cells)). Conditions: 72 h compound exposure (96 h after seeding) h; trametinib co-treatment 0 µM.
Method: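 Four neuroblastoma cell lines (KCNR, SKNBE, SJNB8, SKNAS) were seeded in 384-well plates. At 24 h, 1 µM trametinib or DMSO was added, followed by library compounds at 10 nM, 100 nM and 1 µM. Viability was read by MTT at 96 h and normalised to solvent-treated cells (DMSO arm) or to trametinib-only cells (trametinib arm). The area under the 3-point viability curve was computed in GraphPad Prism; units are as given (approx. 100000 = no effect).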
With O=C(O)c1nn(Cc2ccc(Cl)cc2Cl)c2ccccc12 [Lonidamine] the “area under viability curve” value was 105000. With CC[C@H](Nc1nc(NCc2cnc(C)cc2C)c2ncn(C(C)C)c2n1)[C@@H](C)O [Fadraciclib] the “area under viability curve” value was 76800. For C[C@]12CC[C@@H]3c4ccc(OC(=O)N(CCCl)CCCl)cc4CC[C@H]3[C@@H]1CC[C@@H]2OP(=O)(O)O [Estramustine phosphate sodium], the “area under viability curve” value was 100000. For CC(=O)Oc1ccc(/C=C/c2cc(OC(C)=O)cc(OC(C)=O)c2)cc1 [Triacetylresveratrol], the “area under viability curve” value was 98900. In the case of Cc1ncc(CNC(=O)N(CCCl)N=O)c(N)n1 [Nimustine HCl], the “area under viability curve” value is reported as 108000. N[C@@H]1C[C@H]1c1ccccc1.N[C@H]1C[C@@H]1c1ccccc1 [Tranylcypromine hemisulfate] was tested, and the “area under viability curve” value was 100000. With CCC(=O)CCCCC[C@@H]1NC(=O)[C@H]2CCCCN2C(=O)[C@H]([C@@H](C)CC)NC(=O)[C@H](Cc2cn(OC)c3ccccc23)NC1=O [Apicidin] the “area under viability curve” value was 42900. With N.N.[Cl][Pt][Cl] [Cisplatin] the “area under viability curve” value was 98800. With C[C@]12CCC(=O)C(O)=C1CC[C@@H]1[C@@H]2CC[C@]2(C)C(=O)CC[C@@H]12 [Formestane] the “area under viability curve” value was 110000. In the case of N[C@@H](Cc1ccc(N(CCCl)CCCl)cc1)C(=O)O [Melphalan], the “area under viability curve” value is reported as 103000. CC[C@@]1([C@H]2O[C@H]([C@H]3O[C@@](O)(CO)[C@H](C)C[C@@H]3C)C[C@H]2C)CC[C@H]([C@@]2(C)CC[C@]3(C[C@H](O)[C@@H](C)[C@@H]([C@H](C)[C@H](OC)[C@@H](C)C(=O)O)O3)O2)O1 [Monensin sodium] was tested, and the “area under viability curve” value was 50000. With C=C1C[C@@H]2[C@H](CC[C@]3(C)C(=O)CC[C@@H]23)[C@@]2(C)C=CC(=O)C=C12 [Exemestane] the “area under viability curve” value was 101000.

Same assay, conditions: 72 h compound exposure (96 h after seeding) h; trametinib co-treatment 1 µM
O=C(O)c1nn(Cc2ccc(Cl)cc2Cl)c2ccccc12 [Lonidamine] was tested, and the “area under viability curve” value was 102000. For CC[C@H](Nc1nc(NCc2cnc(C)cc2C)c2ncn(C(C)C)c2n1)[C@@H](C)O [Fadraciclib], the “area under viability curve” value was 62400. C[C@]12CC[C@@H]3c4ccc(OC(=O)N(CCCl)CCCl)cc4CC[C@H]3[C@@H]1CC[C@@H]2OP(=O)(O)O [Estramustine phosphate sodium] was tested, and the “area under viability curve” value was 98500. With CC(=O)Oc1ccc(/C=C/c2cc(OC(C)=O)cc(OC(C)=O)c2)cc1 [Triacetylresveratrol] the “area under viability curve” value was 100000. In the case of Cc1ncc(CNC(=O)N(CCCl)N=O)c(N)n1 [Nimustine HCl], the “area under viability curve” value is reported as 101000. With N[C@@H]1C[C@H]1c1ccccc1.N[C@H]1C[C@@H]1c1ccccc1 [Tranylcypromine hemisulfate] the “area under viability curve” value was 100000. In the case of CCC(=O)CCCCC[C@@H]1NC(=O)[C@H]2CCCCN2C(=O)[C@H]([C@@H](C)CC)NC(=O)[C@H](Cc2cn(OC)c3ccccc23)NC1=O [Apicidin], the “area under viability curve” value is reported as 27600. In the case of N.N.[Cl][Pt][Cl] [Cisplatin], the “area under viability curve” value is reported as 105000. With C[C@]12CCC(=O)C(O)=C1CC[C@@H]1[C@@H]2CC[C@]2(C)C(=O)CC[C@@H]12 [Formestane] the “area under viability curve” value was 105000. In the case of N[C@@H](Cc1ccc(N(CCCl)CCCl)cc1)C(=O)O [Melphalan], the “area under viability curve” value is reported as 96500. For CC[C@@]1([C@H]2O[C@H]([C@H]3O[C@@](O)(CO)[C@H](C)C[C@@H]3C)C[C@H]2C)CC[C@H]([C@@]2(C)CC[C@]3(C[C@H](O)[C@@H](C)[C@@H]([C@H](C)[C@H](OC)[C@@H](C)C(=O)O)O3)O2)O1 [Monensin sodium], the “area under viability curve” value was 29100. In the case of C=C1C[C@@H]2[C@H](CC[C@]3(C)C(=O)CC[C@@H]23)[C@@]2(C)C=CC(=O)C=C12 [Exemestane], the “area under viability curve” value is reported as 96800.
